# The other results are listed elsewhere or left out.
# Columns and labels:
# Assay in all cases: glycan array binding signal (z-score within array); higher = stronger binding
# Conditions in all cases: glycan notation: IUPAC condensed, linker removed; mutation: H84T
# [1] = target: Gal(b1-3)GlcNAc(b1-2)Man(a1-3)[Gal(b1-3)GlcNAc(b1-2)Man(a1-6)]Man(b1-4)GlcNAc(b1-4)GlcNAc
# In short: (§1)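 Columns mapping to the same glycan were averaged after glycan names were converted to IUPAC-condensed notation. The data come from 3228 arrays in the Consortium for Functional Glycomics database, limited to those with an available protein sequence. Binding is reported as a within-array Z-score averaged across arrays of one protein sequence and across linkers.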
# [2] = target: Gal(b1-3)GlcNAc(b1-2)Man(a1-3)[Gal(b1-3)GlcNAc(b1-2)Man(a1-6)]Man(b1-4)GlcNAc(b1-4)[Fuc(a1-6)]GlcNAc
# In short: as §1
# [3] = target: Gal(b1-3)GlcNAc(b1-2)Man(a1-3)[GlcNAc(b1-4)][Gal(b1-3)GlcNAc(b1-2)Man(a1-6)]Man(b1-4)GlcNAc(b1-4)GlcNAc
# In short: as §1
# [4] = target: Gal(b1-3)GlcNAc(b1-2)[Gal(b1-3)GlcNAc(b1-6)]Man(a1-6)[Gal(b1-3)GlcNAc(b1-2)Man(a1-3)]Man(b1-4)GlcNAc(b1-4)GlcNAc
# In short: as §1
# [5] = target: Gal(b1-3)GlcNAc(b1-3)Gal(b1-3)GlcNAc
# In short: as §1
# [6] = target: Gal(b1-3)GlcNAc(b1-3)Gal(b1-4)Glc
# In short: as §1
# [7] = target: Gal(b1-3)GlcNAc(b1-3)Gal(b1-4)GlcNAc
# In short: as §1
# [8] = target: Gal(b1-3)GlcNAc(b1-3)Gal(b1-4)GlcNAc(b1-2)Man(a1-3)[Gal(b1-3)GlcNAc(b1-3)Gal(b1-4)GlcNAc(b1-2)Man(a1-6)]Man(b1-4)GlcNAc(b1-4)GlcNAc
# In short: as §1
# [9] = target: Gal(b1-3)GlcNAc(b1-3)Gal(b1-4)GlcNAc(b1-2)[Gal(b1-3)GlcNAc(b1-3)Gal(b1-4)GlcNAc(b1-6)]Man(a1-6)[Gal(b1-3)GlcNAc(b1-3)Gal(b1-4)GlcNAc(b1-2)Man(a1-3)]Man(b1-4)GlcNAc(b1-4)[Fuc(a1-6)]GlcNAc
# In short: as §1
# [10] = target: Gal(b1-3)GlcNAc(b1-3)Gal(b1-4)GlcNAc(b1-3)Gal(b1-4)GlcNAc(b1-2)[Gal(b1-3)GlcNAc(b1-3)Gal(b1-4)GlcNAc(b1-3)Gal(b1-4)GlcNAc(b1-6)]Man(a1-6)[Gal(b1-3)GlcNAc(b1-3)Gal(b1-4)GlcNAc(b1-3)Gal(b1-4)GlcNAc(b1-2)Man(a1-3)]Man(b1-4)GlcNAc(b1-4)[Fuc(a1-6)]GlcNAc
# In short: as §1
# [11] = target: Gal(b1-3)GlcNAc(b1-3)Gal(b1-4)GlcNAc(b1-6)[Gal(b1-3)GlcNAc(b1-3)]Gal(b1-4)Glc
# In short: as §1
# [12] = target: Gal(b1-3)GlcNAc(b1-3)Gal(b1-4)[Fuc(a1-3)]GlcNAc
# In short: as §1
# [13] = target: Gal(b1-3)GlcNAc(b1-3)Gal(b1-4)[Fuc(a1-3)]GlcNAc(b1-6)[Gal(b1-3)GlcNAc(b1-3)]Gal(b1-4)Glc
# In short: as §1
# [14] = target: Gal(b1-3)GlcNAc(b1-3)GalNAc
# In short: as §1
# [15] = target: Gal(b1-3)GlcNAc(b1-6)Gal(b1-4)GlcNAc
# In short: as §1
# [16] = target: Gal(b1-3)GlcNAc(b1-6)GalNAc
# In short: as §1
# [17] = target: Gal(b1-3)GlcNAc(b1-6)[Gal(b1-3)]GalNAc
# In short: as §1
# [18] = target: Gal(b1-3)GlcNAc6S
# In short: as §1
# [19] = target: Gal(b1-3)[Fuc(a1-4)]GlcNAc
# In short: as §1
# [20] = target: Gal(b1-3)[Fuc(a1-4)]GlcNAc(b1-2)Man
# In short: as §1
# [21] = target: Gal(b1-3)[Fuc(a1-4)]GlcNAc(b1-2)Man(a1-3)[Gal(b1-3)[Fuc(a1-4)]GlcNAc(b1-2)Man(a1-6)]Man(b1-4)GlcNAc(b1-4)[Fuc(a1-6)]GlcNAc
# In short: as §1
# [22] = target: Gal(b1-3)[Fuc(a1-4)]GlcNAc(b1-3)Gal(b1-3)[Fuc(a1-4)]GlcNAc
# In short: as §1
# [23] = target: Gal(b1-3)[Fuc(a1-4)]GlcNAc(b1-3)Gal(b1-4)[Fuc(a1-3)]GlcNAc
# In short: as §1
# [24] = target: Gal(b1-3)[Fuc(a1-4)]GlcNAc(b1-6)GalNAc
# In short: as §1
# [25] = target: Gal(b1-3)[GlcNAc(b1-6)]GalNAc
# In short: as §1
# [26] = target: Gal(b1-3)[Neu5Ac(a2-6)]GalNAc
# In short: as §1
# [27] = target: Gal(b1-3)[Neu5Ac(a2-6)]GlcNAc(b1-4)Gal(b1-4)Glc
# In short: as §1
# [28] = target: Gal(b1-3)[Neu5Ac(b2-6)]GalNAc
# In short: as §1
# [29] = target: Gal(b1-4)Gal
# In short: as §1
# [30] = target: Gal(b1-4)GalNAc(a1-3)[Fuc(a1-2)]Gal(b1-4)GlcNAc
# In short: as §1
# [31] = target: Gal(b1-4)GalNAc(b1-3)[Fuc(a1-2)]Gal(b1-4)GlcNAc
# In short: as §1
# [32] = target: Gal(b1-4)Glc
# In short: as §1
# [33] = target: Gal(b1-4)Glc6S
# In short: as §1
# [34] = target: Gal(b1-4)GlcNAc
# In short: as §1
# [35] = target: Gal(b1-4)GlcNAc(a1-6)Gal(b1-4)GlcNAc
# In short: as §1
# [36] = target: Gal(b1-4)GlcNAc(b1-2)Man
# In short: as §1
# [37] = target: Gal(b1-4)GlcNAc(b1-2)Man(a1-3)Man(b1-4)GlcNAc(b1-4)GlcNAc
# In short: as §1
# [38] = target: Gal(b1-4)GlcNAc(b1-2)Man(a1-3)[Gal(b1-4)GlcNAc(b1-2)Man(a1-6)]Man(b1-4)GlcNAc(b1-4)GlcNAc
# In short: as §1
# [39] = target: Gal(b1-4)GlcNAc(b1-2)Man(a1-3)[Gal(b1-4)GlcNAc(b1-2)Man(a1-6)]Man(b1-4)GlcNAc(b1-4)[Fuc(a1-6)]GlcNAc
# In short: as §1
# [40] = target: Gal(b1-4)GlcNAc(b1-2)Man(a1-3)[Gal(b1-4)GlcNAc(b1-2)Man(a1-6)][Gal(b1-4)GlcNAc(b1-4)]Man(b1-4)GlcNAc(b1-4)[Fuc(a1-6)]GlcNAc
# In short: as §1
# [41] = target: Gal(b1-4)GlcNAc(b1-2)Man(a1-3)[Gal(b1-4)GlcNAc(b1-2)Man(a1-6)][GlcNAc(b1-4)]Man(b1-4)GlcNAc(b1-4)[Fuc(a1-6)]GlcNAc
# In short: as §1
# [42] = target: Gal(b1-4)GlcNAc(b1-2)Man(a1-3)[GlcNAc(b1-2)Man(a1-6)]Man(b1-4)GlcNAc(b1-4)GlcNAc
# In short: as §1
# [43] = target: Gal(b1-4)GlcNAc(b1-2)Man(a1-3)[GlcNAc(b1-4)][Gal(b1-4)GlcNAc(b1-2)Man(a1-6)]Man(b1-4)GlcNAc(b1-4)GlcNAc
# In short: as §1
# [44] = target: Gal(b1-4)GlcNAc(b1-2)Man(a1-3)[Man(a1-6)]Man(b1-4)GlcNAc(b1-4)GlcNAc
# In short: as §1
# [45] = target: Gal(b1-4)GlcNAc(b1-2)Man(a1-6)Man(b1-4)GlcNAc(b1-4)GlcNAc
# In short: as §1
binder,measurement,setting,value
Banana lectin (Musa acuminata) (protein) MNGAIKVGAWGGNGGSAFDMGPAYRIISVKIFSGDVVDGVDVTFTYYGKTETRHYGGSGGTPHEIVLQEGEYLVGMAGEVANYTGAVVLGKLGFSTNKKAYGPFGNTGGTPFSLPIAAGKISGFFGRGGKFLDAIGVYLEPLEHHHHHH,glycan array binding signal (z-score),[1],0.18
same,glycan array binding signal (z-score),[2],-0.114
same,glycan array binding signal (z-score),[3],0.873
same,glycan array binding signal (z-score),[4],0.324
same,glycan array binding signal (z-score),[5],-0.182
same,glycan array binding signal (z-score),[6],-0.157
same,glycan array binding signal (z-score),[7],-0.168
same,glycan array binding signal (z-score),[8],-0.111
same,glycan array binding signal (z-score),[9],0.665
same,glycan array binding signal (z-score),[10],0.571
same,glycan array binding signal (z-score),[11],-0.16
same,glycan array binding signal (z-score),[12],-0.181
same,glycan array binding signal (z-score),[13],-0.191
same,glycan array binding signal (z-score),[14],-0.179
same,glycan array binding signal (z-score),[15],-0.188
same,glycan array binding signal (z-score),[16],-0.155
same,glycan array binding signal (z-score),[17],-0.117
same,glycan array binding signal (z-score),[18],-0.154
same,glycan array binding signal (z-score),[19],-0.181
same,glycan array binding signal (z-score),[20],-0.197
same,glycan array binding signal (z-score),[21],-0.193
same,glycan array binding signal (z-score),[22],-0.197
same,glycan array binding signal (z-score),[23],-0.174
same,glycan array binding signal (z-score),[24],-0.18
same,glycan array binding signal (z-score),[25],-0.172
same,glycan array binding signal (z-score),[26],-0.154
same,glycan array binding signal (z-score),[27],-0.19
same,glycan array binding signal (z-score),[28],-0.186
same,glycan array binding signal (z-score),[29],-0.186
same,glycan array binding signal (z-score),[30],-0.173
same,glycan array binding signal (z-score),[31],-0.137
same,glycan array binding signal (z-score),[32],-0.156
same,glycan array binding signal (z-score),[33],-0.165
same,glycan array binding signal (z-score),[34],-0.179
same,glycan array binding signal (z-score),[35],-0.202
same,glycan array binding signal (z-score),[36],-0.134
same,glycan array binding signal (z-score),[37],-0.168
same,glycan array binding signal (z-score),[38],-0.176
same,glycan array binding signal (z-score),[39],-0.167
same,glycan array binding signal (z-score),[40],-0.206
same,glycan array binding signal (z-score),[41],-0.193
same,glycan array binding signal (z-score),[42],-0.189
same,glycan array binding signal (z-score),[43],-0.187
same,glycan array binding signal (z-score),[44],-0.155
same,glycan array binding signal (z-score),[45],-0.181
